Reference: publication PMC4336329 (PLoS ONE, 2015)
Screen size: about 310,000 compounds; about 14,000 (4.5%) showed an effect of 50% or more. The effect is printed as a negative number. This is one part of the list.

target: human ether-à-go-go-related gene (hERG) potassium channel (human, UniProt Q12809); experiment: primary screen, population patch clamp on CHO cells stably expressing hERG
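Further: peak tail current of the secondary pulse compared with the same well before compound.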

human ether-à-go-go-related gene (hERG) potassium channel, sequence (Q12809 whole entry, looked up): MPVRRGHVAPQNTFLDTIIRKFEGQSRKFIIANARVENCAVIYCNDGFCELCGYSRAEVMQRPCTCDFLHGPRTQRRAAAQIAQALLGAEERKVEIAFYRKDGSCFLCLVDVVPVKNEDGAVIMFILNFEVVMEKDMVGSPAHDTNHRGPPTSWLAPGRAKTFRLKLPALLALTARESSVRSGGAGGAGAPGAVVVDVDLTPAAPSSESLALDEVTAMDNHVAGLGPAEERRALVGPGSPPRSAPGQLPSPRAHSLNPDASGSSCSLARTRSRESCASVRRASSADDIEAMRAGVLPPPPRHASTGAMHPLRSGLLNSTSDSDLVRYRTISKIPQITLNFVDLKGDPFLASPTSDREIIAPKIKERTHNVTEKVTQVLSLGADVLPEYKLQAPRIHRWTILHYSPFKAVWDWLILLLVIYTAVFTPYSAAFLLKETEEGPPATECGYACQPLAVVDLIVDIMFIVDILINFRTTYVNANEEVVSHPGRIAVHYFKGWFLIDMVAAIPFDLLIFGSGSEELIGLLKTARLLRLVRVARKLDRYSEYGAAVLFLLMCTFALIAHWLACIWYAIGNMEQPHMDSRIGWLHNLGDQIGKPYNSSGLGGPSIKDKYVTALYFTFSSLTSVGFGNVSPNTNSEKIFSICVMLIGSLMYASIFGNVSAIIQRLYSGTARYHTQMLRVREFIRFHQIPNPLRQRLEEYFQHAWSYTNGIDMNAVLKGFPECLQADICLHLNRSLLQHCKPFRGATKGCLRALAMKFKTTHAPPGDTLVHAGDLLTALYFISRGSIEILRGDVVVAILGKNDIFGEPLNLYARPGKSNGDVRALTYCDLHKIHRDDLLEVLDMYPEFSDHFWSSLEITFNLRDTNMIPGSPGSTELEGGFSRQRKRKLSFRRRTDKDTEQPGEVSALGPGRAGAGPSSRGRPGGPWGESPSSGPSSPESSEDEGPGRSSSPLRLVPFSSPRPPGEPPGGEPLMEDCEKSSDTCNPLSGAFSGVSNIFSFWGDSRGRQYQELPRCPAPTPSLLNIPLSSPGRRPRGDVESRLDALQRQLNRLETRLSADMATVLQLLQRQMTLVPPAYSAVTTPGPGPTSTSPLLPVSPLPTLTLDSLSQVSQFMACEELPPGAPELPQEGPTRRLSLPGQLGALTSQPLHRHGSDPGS

| SMILES | hERG current change (%, negative = inhibition) at 10uM |
| --- | --- |
| CCOC(=O)CSc1cc(C)nc(N)n1 | -5.41% |
| COc1ccc(NC(=O)N2CCCC2C(=O)NC23CC4CC(CC(C4)C2)C3)cc1 (stereo not drawn) | 12.7% |
| CN(C)S(=O)(=O)c1cccc(NC(=S)Nc2ccc(Cl)cc2Cl)c1 | -4.86% |
| Cc1ccc(C(=O)CSc2nnc(-c3cccs3)n2C)o1 | 5.76% |
| COCC(=O)OCC(=O)Nc1ccc(Cl)cc1[N+](=O)[O-] | 28% |
| O=C(NCCCc1ccc(F)cc1)C1CCC(=O)N(CC2CCCCC2)C1 (stereo not drawn) | -33.5% |
| COC(=O)c1cc(NC(=O)c2cc3ccccc3o2)cc(C(=O)OC)c1 | 10.4% |
| C[C@H](NS(=O)(=O)c1ccccc1F)C(=O)OCC(=O)N1CCc2ccccc21 | -1.65% |
| Clc1nnc(N2CCCCC2)c2ccccc12 | 1.27% |
| OCC[C@@H]1C[C@@H](O)[C@H](O)[C@]2(CCc3ccccc3CO2)O1 | 21.6% |
| COc1cc(OC)c(-c2sc(Nc3ccccc3)n[n+]2-c2ccc(F)cc2)cc1OC.[Cl-] | -0.831% |
| CCOC(=O)C1CCN(CC(O)COCc2ccc3c(c2)OCO3)CC1.Cl (stereo not drawn) | -46% |
| Cc1cc(NC(=O)Cc2cc(F)cc(F)c2)no1 | 23.8% |
| Cc1ccc2c(Cl)cc(Cl)c(OCC(=O)N3CCOCC3)c2n1 | -8.28% |
| CCN(c1cccc(C)c1)S(=O)(=O)c1cccc2nsnc12 | 10.6% |
| COc1ccc(S(=O)(=O)N2CCN3CCCC3C2)cc1 (stereo not drawn) | 22.7% |
| O=C(N/C(=C\c1ccc(Br)cc1)C(=O)N1CCOCC1)c1ccc(Br)o1 | -67.1% |
| CC(C)(C)C(=O)NC(=S)NNC(=O)c1ccncc1 | 21.2% |
| CCOC(=O)c1cc(-c2ccccc2)nn1CCC#N | 12% |
| CN(C)c1ccc(CNC(=O)CCNS(=O)(=O)c2cc(Br)cnc2N)cc1 | 12% |
| Cc1nc2ccsc2c(=O)n1-c1ccccc1Cl | 8.42% |
| CC(O)C(=O)N/N=C/c1cccc(Cl)c1Cl (stereo not drawn) | 0.711% |
| Cc1cc(=O)oc(C)c1C(=O)Nc1ccc(N(C)C)cc1 | 9.17% |

| SMILES | hERG current change (%, negative = inhibition) at 10uM |
| --- | --- |
| CCOC(=O)N1CCN(C(=O)Cc2c(C(=O)O)n(C)c3ccccc23)CC1 | 5.28% |
| CC(=O)c1cccc(NC(=O)Cn2cc3c(n2)CCCC3)c1 | 3.67% |
| c1cncc(-c2nc(-c3ccco3)cs2)c1 | -12.7% |
| O=S(=O)(Nc1cccc(S(=O)(=O)N2CCCC2)c1)c1cccc(Br)c1 | -15.2% |
| O=C(O)C(F)(F)F.O=C1C(Cc2ccccc2)Nc2ncnc(N3CCOCC3)c2N1Cc1ccc(Cl)cc1 (stereo not drawn) | -18.1% |
| CCCOc1cccc(C(=O)N(Cc2ccco2)C2CCS(=O)(=O)C2)c1 (stereo not drawn) | -2.12% |
| CCN1C(=NCC(C)C)N[C@@H](CCc2ccccc2)[C@H](C(=O)NCC(C)C)[C@H]1C | -16.2% |
| O=C1CNC(=O)/C(=C\c2ccc(F)cc2)N1 | 20.8% |
| CC(C)NC(=O)CN1CCN(Cc2nc(-c3cccs3)no2)CC1 | 19.9% |
| O=C(O)CN1C(=O)C2C3C=CC(C3)C2C1=O (stereo not drawn) | -4.94% |
| Cn1c(=O)c2sccc2n2c(CCCC(=O)NC3CCN(Cc4ccccc4)CC3)nnc12 | 16.2% |
| COc1ccc(S(=O)(=O)N(CC(=O)N2CCN(c3ccccc3OC)CC2)c2ccccc2)cc1 | -36.5% |
| CCOc1cc(/C=N/NC(=O)c2ccncc2)ccc1OC(=O)c1ccccc1 | 13.7% |
| Cc1c(C(=O)O)sc2c1c(=O)n(Cc1ccccc1)c(=O)n2C | 23.2% |
| CC(=O)Oc1ccccc1/C=C/c1ccc2ccccc2[n+]1C.[I-] | 11.3% |
| CC(OC(=O)CCc1nc2ccccc2c(=O)[nH]1)C(=O)NCc1ccc2c(c1)OCO2 (stereo not drawn) | 5.17% |
| CCOCC(O)CNc1ccccc1 (stereo not drawn) | 9.24% |
| CN1C(=O)CC(C(=O)O)SC1=Nc1cc(Cl)c(O)c(Cl)c1 (stereo not drawn) | 3.06% |
| O=C(c1cc(-c2ccc(Br)cc2)nc2ccccc12)N1CCC1 | -44.4% |
| O=C(CC1S/C(=N/N=C/C=C/c2ccccc2)NC1=O)Nc1ccc(C(=O)O)cc1 (stereo not drawn) | 18.7% |
| CC(=O)c1ccccc1NC(=O)COC(=O)c1cc(C)oc1C | 2.23% |
| O=C1CCC2CCCCC2(O)O1 (stereo not drawn) | 2.29% |
| CC(C)(C)NC(=O)C(c1ccc(F)cc1)N(Cc1ccco1)C(=O)Cn1nnc(-c2cccs2)n1 (stereo not drawn) | 12.7% |

| SMILES | hERG current change (%, negative = inhibition) at 10uM |
| --- | --- |
| COc1ccc(CCNC(=O)c2ccc(NC(=O)CC3SC(N4CCCC4)=NC3=O)cc2)cc1 (stereo not drawn) | -0.214% |
| O=C(COc1ccc(Cl)cc1Cl)N(C1CCCCC1)C1CCS(=O)(=O)C1 (stereo not drawn) | 8.94% |
| COc1ccc([C@]2(C(C)C)ON(c3ccccc3C(F)(F)F)C2=O)cc1 | 9.73% |
| Cc1ccc(C)n1-c1ccc(C(=O)NCC2CCCO2)cc1 (stereo not drawn) | -5.76% |
| COc1cccc(CCNC(=O)C2CCC(=O)N(Cc3cccc(OC)c3)C2)c1 (stereo not drawn) | -0.0336% |
| CC1=C(C(=O)OCCOc2ccccc2)C(c2ccsc2)NC(=O)N1C (stereo not drawn) | -15.3% |
| Cn1c(SCC(=O)N2CCOCC2)nc(O)cc1=O | 9.81% |
| COC(=O)c1sccc1NC(=O)Cc1ccc(OC)cc1 | -14.4% |
| O=C(Cn1cc2c(n1)CCCCC2)NCc1ccccc1 | -7.9% |
| CN(c1ccccc1C(=O)N1CCN(c2ccccc2F)CC1)S(=O)(=O)c1ccccc1 | -34.4% |
| CCOC(=O)[C@@H]1[C@H]2COc3ccc(Br)cc3[C@@H]2N2C(=O)N(c3cccc(F)c3)C(=O)[C@@]12C | 2.37% |
| C=CCNC(=O)/C=C/c1ccc(C(C)C)cc1 | -12.5% |
| O=C(CCc1nnc2ccc(NCc3ccco3)nn12)Nc1ccccn1 | 16.3% |
| COc1cc(C(C)=O)ccc1Oc1ncnc2c1cnn2-c1cccc(Cl)c1 | 11.7% |
| COc1cc2c(cc1OC)C(c1cc3ccc(C)cc3[nH]c1=O)N(C(=O)c1ccco1)CC2 (stereo not drawn) | -32.6% |
| CC12CC3CC(C)(C1)CC(C(=O)NC1=NCCS1)(C3)C2 | -5.65% |
| S=c1[nH]nc(Cc2ccc(Br)cc2)n1/N=C/c1ccc(Cl)cc1 | 24.8% |
| NC(=O)C1CCN(C(=O)NC2CC(=O)N(c3ccc4c(c3)OCCO4)C2)CC1 (stereo not drawn) | -3.63% |
| Cc1c(NC(=O)Cn2ccc([N+](=O)[O-])n2)c(=O)n(-c2ccccc2)n1C | 24.2% |
| CCOc1ccc(C2=NNC(c3cccnc3)=Nc3ccc(OC)cc32)cc1 | 3.01% |
| CC(=O)O.NC(N)=N/N=C/c1c(Cl)cccc1Cl | -28.5% |
| CCN(CC)C(=O)Cn1cc(C(=O)C(=O)NCc2ccco2)c2ccccc21 | -11.3% |
| Cl.OCCN1CCN(CC(O)COc2ccc3ccccc3c2)CC1 (stereo not drawn) | 0.598% |

| SMILES | hERG current change (%, negative = inhibition) at 10uM |
| --- | --- |
| CCOc1ccc(-c2nc(CCl)cs2)cc1.Cl | 7.6% |
| NS(=O)(=O)c1ccc(NC(=O)CN2CCCc3ccccc32)cc1 | -5.73% |
| COC(=O)c1cccc(NC(=O)CC2C(=O)NCCN2C(=O)c2ccc(F)cc2F)c1 (stereo not drawn) | 11.4% |
| Cc1ccc(S(=O)(=O)N2CC=C(C(=O)NCc3ccc(F)cc3)CC2)cc1 | -43.4% |
| FC(F)(F)Oc1ccc(NC(=S)Nc2ccccc2N2CCOCC2)cc1 | -10.7% |
| [O-]/C(=C(\C(=S)Nc1ccccc1F)[n+]1ccccc1)c1ccc(-c2ccccc2)cc1 | 10.6% |
| COC(CNC(=O)CSCc1nc(-c2ccc(SC)cc2)oc1C)OC | 1.22% |
| CCOc1ccccc1/C=N/N1CCN(Cc2ccccc2)CC1.Cl | 16.4% |
| CCOc1cc(N2CCOCC2)c(OCC)cc1NC(=O)CN1C(=O)N(C)C2(CCCCC2)C1=O | -23.5% |
| O=C(COc1ccccc1)Nc1c(Cl)ccc2nsnc12 | 11.9% |
| COc1ccc(C(=O)NCCC2=CCCCC2)cc1S(=O)(=O)N1CCOCC1 | -40.4% |
| COc1ccc(NC(=O)CSc2n[nH]c(=O)n2Cc2ccccc2)cc1Cl | -10.4% |
| O=C(c1ccc(C(=O)N2CCOCC2)s1)N1CCOCC1 | 1.17% |
| CCOC(=O)c1ccc(NC(=O)C(CC)CC)cc1 | -6.13% |
| Cc1ccc(/C=N/n2c(C)n[nH]c2=S)o1 | 7.03% |
| Cc1ccc(-n2ncc(-c3nn[nH]n3)c2N)cc1 | 24.6% |
| C/C(=N\NC(=O)CNC(=O)c1ccco1)c1ccc(Br)cc1 | 11.9% |
| COc1cc(SC)ccc1C(=O)OCC(=O)N1CCCC1 | 3.69% |
| COc1ccc(NC(=O)[C@@H](NC(=O)c2ccccc2F)C(C)C)cc1S(=O)(=O)N1CCOCC1 | -37.1% |
| Cc1cc(C)cc(NC(=O)Nc2cnccn2)c1 | 12% |
| OCC[C@H]1C[C@@H](O)[C@H](O)[C@@]2(OCc3ccccc32)O1 | 7.27% |
